# Laboratory results: a collection of fitness landscapes (doi:10.1126/science.1257360)
# The other results are listed elsewhere or left out.
# B1: PhoQ; a variant is named by its letters at X, in order, P23837 (parent)
# chain: MKKLLRLFFPLSLRVRFLLATAAVVLVLSLAYGMVALIGYSVSFDKTTFRLLRGESNLFYTLAKWENNKLHVELPENIDKQSPTMTLIYDENGQLLWAQRDVPWLMKMIQPDWLKSNGFHEIEADVNDTSLLLSGDHSIQQQLQEVREDDDDAEMTHSVAVNVYPATSRMPKLTIVVVDTIPVELKSSYMVWSWFIYVLSANLLLVIPLLWVAAWWSLRPIEALAKEVRELEEHNRELLNPATTRELTSLVRNLNRLLKSERERYDKYRTTLTDLTHSLKTPLXXLQXXLRSLRSEKMSVSDAEPVMLEQISRISQQIGYYLHRASMRGGTLLSRELHPVAPLLDNLTSALNKVYQRKGVNISLDISPEISFVGEQNDFVEVMGNVLDNACKYCLEFVEISARQTDEHLYIVVEDDGPGIPLSKREVIFDRGQRVDTLRPGQGVGLAVAREITEQYEGKIVAGESMLGGARMEVIFGRQHSAPKDE
# Variants of: B1
# Assay: enrichment ratio after two sorts for PhoP signalling (ratio (wild type AVST 3.29)); higher = more functional
# Settings: with PhoP (E. coli)
row,Variant,enrichment ratio
1,TQYS,12.5
2,MDTC,≤ 0.25
3,RTCF,≤ 0.25
4,KIYN,≤ 0.25
5,RMFG,≤ 0.25
6,WFKD,≤ 0.25
7,YFTT,≤ 0.25
8,MVHC,≤ 0.25
9,VLYA,≤ 0.25
10,VCSY,≤ 0.25
11,RSWR,≤ 0.25
12,THKE,≤ 0.25
13,LCFP,≤ 0.25
14,AWVF,≤ 0.25
15,YYCF,≤ 0.25
16,KSSF,≤ 0.25
17,GTIL,10.9
18,WRIY,≤ 0.25
19,CYAY,≤ 0.25
20,SCDS,≤ 0.25
21,MLRW,≤ 0.25
22,HMGP,≤ 0.25
23,AYFS,≤ 0.25
24,IACF,≤ 0.25
25,LSQN,≤ 0.25

row,Variant,enrichment ratio
1,GETI,11.6
2,VGSR,≤ 0.25
3,QHKY,≤ 0.25
4,MVCD,≤ 0.25
5,ANKS,≤ 0.25
6,PEDQ,≤ 0.25
7,TGTV,10.2
8,RDEN,≤ 0.25
9,RPIF,≤ 0.25
10,MQMA,≤ 0.25
11,ERIM,≤ 0.25
12,TWKG,≤ 0.25
13,GMWF,≤ 0.25
14,TMGE,14.8
15,GHSQ,≤ 0.25
16,NAPQ,≤ 0.25
17,ANCL,21.8
18,MLAW,≤ 0.25
19,IESY,≤ 0.25
20,YYNY,0.699
21,SYTW,≤ 0.25
22,NQMI,≤ 0.25
23,NSDV,≤ 0.25
24,TEGE,0.253
25,STSM,16.4

row,Variant,enrichment ratio
1,TVRA,≤ 0.25
2,EKAL,≤ 0.25
3,TSYK,≤ 0.25
4,DIVP,≤ 0.25
5,LFCN,≤ 0.25
6,IQCA,≤ 0.25
7,HPIG,≤ 0.25
8,RWNS,≤ 0.25
9,SQLY,5.01
10,INVA,≤ 0.25
11,GMYW,≤ 0.25
12,EYLV,≤ 0.25
13,LAVW,≤ 0.25
14,RPRR,≤ 0.25
15,FVCK,≤ 0.25
16,MHQD,≤ 0.25
17,RRII,≤ 0.25
18,HHFN,≤ 0.25
19,PKIG,≤ 0.25
20,QNGF,≤ 0.25
21,MMFR,≤ 0.25
22,EGRL,≤ 0.25
23,LVKF,≤ 0.25
24,PHDK,≤ 0.25
25,VQMA,≤ 0.25

row,Variant,enrichment ratio
1,YKHT,≤ 0.25
2,HESL,≤ 0.25
3,YSLV,8.32
4,GQCH,1.9
5,RTGL,≤ 0.25
6,YTHV,≤ 0.25
7,MVEG,≤ 0.25
8,FQIR,≤ 0.25
9,IHVD,≤ 0.25
10,SCGM,9.65
11,VFWD,≤ 0.25
12,EFTG,≤ 0.25
13,GPLS,≤ 0.25
14,MFHM,≤ 0.25
15,IIGM,≤ 0.25
16,QGCP,≤ 0.25
17,NCPG,≤ 0.25
18,ARDH,≤ 0.25
19,QVWS,≤ 0.25
20,NYER,≤ 0.25
21,KSLI,≤ 0.25
22,SCCF,13.7
23,MTAI,17.8
24,QDRC,≤ 0.25
25,VNYI,≤ 0.25

row,Variant,enrichment ratio
1,SKTW,≤ 0.25
2,VCLM,4.34
3,PFTY,≤ 0.25
4,VQVE,≤ 0.25
5,DYEL,≤ 0.25
6,RWFT,≤ 0.25
7,ISDA,≤ 0.25
8,LIGP,≤ 0.25
9,HYRH,≤ 0.25
10,TWYR,≤ 0.25
11,YFVY,≤ 0.25
12,TFTQ,1.63
13,RLYR,≤ 0.25
14,ATAV,2.86
15,EIDF,≤ 0.25
16,MAYL,9.09
17,MLHK,≤ 0.25
18,IFQQ,≤ 0.25
19,FAHE,≤ 0.25
20,RYHQ,≤ 0.25
21,QTRC,≤ 0.25
22,KCET,≤ 0.25
23,YVRN,≤ 0.25
24,QLMD,≤ 0.25
25,LQKD,≤ 0.25

row,Variant,enrichment ratio
1,TWIE,≤ 0.25
2,RLNK,≤ 0.25
3,LYLV,≤ 0.25
4,KRMP,≤ 0.25
5,AMFG,≤ 0.25
6,DDLQ,≤ 0.25
7,GRGV,≤ 0.25
8,QQHN,≤ 0.25
9,EFVQ,≤ 0.25
10,PSCA,≤ 0.25
11,IITK,≤ 0.25
12,TYPR,≤ 0.25
13,GRSH,≤ 0.25
14,SYSP,≤ 0.25
15,MFTL,≤ 0.25
16,KWID,≤ 0.25
17,DQSI,≤ 0.25
18,NTRM,≤ 0.25
19,ICEG,≤ 0.25
20,AVHP,≤ 0.25
21,AKHY,≤ 0.25
22,CLCN,23.2
23,FVNV,≤ 0.25
24,HIPS,≤ 0.25
25,QSDV,8.35

row,Variant,enrichment ratio
1,DQGY,≤ 0.25
2,PGFN,≤ 0.25
3,WEHW,≤ 0.25
4,DMWD,≤ 0.25
5,NHVQ,≤ 0.25
6,CITL,≤ 0.25
7,TTVK,≤ 0.25
8,KQER,≤ 0.25
9,FHTN,≤ 0.25
10,KPSE,≤ 0.25
11,ADSF,≤ 0.25
12,RHEQ,≤ 0.25
13,LMYN,≤ 0.25
14,PHML,≤ 0.25
15,YRMA,≤ 0.25
16,FVQS,≤ 0.25
17,FVWL,≤ 0.25
18,TSWK,≤ 0.25
19,VIIN,≤ 0.25
20,DASF,≤ 0.25
21,FWEI,≤ 0.25
22,GPFC,≤ 0.25
23,TWKY,≤ 0.25
24,NIKG,≤ 0.25
25,ANLY,12

row,Variant,enrichment ratio
1,SRKA,≤ 0.25
2,NQTW,≤ 0.25
3,QVQR,≤ 0.25
4,MNIC,≤ 0.25
5,FMMQ,≤ 0.25
6,YHSF,≤ 0.25
7,WNKT,≤ 0.25
8,WEPP,≤ 0.25
9,YVYS,≤ 0.25
10,DRRV,≤ 0.25
11,GFPF,≤ 0.25
12,QCWL,13.1
13,NDHG,≤ 0.25
14,ARGW,≤ 0.25
15,VLMH,≤ 0.25
16,TTNR,≤ 0.25
17,WTML,≤ 0.25
18,WPHP,≤ 0.25
19,YRRK,≤ 0.25
20,RHAS,≤ 0.25
